Experimental data: PMC7272351
These are yes or no findings as the source states them, for the method shown. Binding seen in cells or lysates may run through a third protein. Some results given as binding are weak or reduced against the parent protein; the word gives no strength.

Amino acid sequences for entries named in this document (tags omitted). A change or cut given only in a name is not applied to a line headed by its entry. Chains listed by the source or under a name are the forms on record and can include a tag or linker. Residues count along the entry.
GFP-tagged human PRR14 Tantalus domain (455–517), wild type (Q9BWN1, residues 455-517): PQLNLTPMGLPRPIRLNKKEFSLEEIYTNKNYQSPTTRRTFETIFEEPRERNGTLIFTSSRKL
GFP-tagged human PRR14 Tantalus domain (455–517) E500A, E501A (Q9BWN1, form named): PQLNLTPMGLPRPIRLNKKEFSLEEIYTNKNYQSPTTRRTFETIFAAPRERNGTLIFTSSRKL
GFP-tagged human PRR14 Tantalus domain (455–517) N483S, K484R (Q9BWN1, form named): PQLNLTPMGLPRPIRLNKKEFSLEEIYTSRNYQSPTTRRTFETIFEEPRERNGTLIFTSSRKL
GFP-tagged human PRR14 Tantalus domain (455–517) F495L (Q9BWN1, form named): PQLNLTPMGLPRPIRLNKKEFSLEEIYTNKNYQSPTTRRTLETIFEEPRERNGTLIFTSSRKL
UniProt Q15172: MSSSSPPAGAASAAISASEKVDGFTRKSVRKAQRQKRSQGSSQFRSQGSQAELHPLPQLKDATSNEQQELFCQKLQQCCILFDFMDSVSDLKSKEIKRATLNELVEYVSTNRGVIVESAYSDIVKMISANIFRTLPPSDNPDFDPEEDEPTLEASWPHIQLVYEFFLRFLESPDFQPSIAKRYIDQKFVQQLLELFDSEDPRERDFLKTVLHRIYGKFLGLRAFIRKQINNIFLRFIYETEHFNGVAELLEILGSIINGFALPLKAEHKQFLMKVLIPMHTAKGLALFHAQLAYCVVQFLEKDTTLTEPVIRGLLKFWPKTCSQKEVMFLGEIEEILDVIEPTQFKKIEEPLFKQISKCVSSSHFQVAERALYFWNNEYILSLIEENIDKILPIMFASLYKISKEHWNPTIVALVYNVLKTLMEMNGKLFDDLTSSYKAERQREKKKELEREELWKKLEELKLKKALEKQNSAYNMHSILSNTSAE

How the values were obtained:
Assay in all cases: co-IP; GFP-Trap magnetic agarose beads (GFP nanobody) added to lysates of HeLa cells co-transfected with GFP-Tantalus (bait) and HA-B56α (prey); lysis in 10 mM Tris-HCl pH 7.5, 150 mM NaCl, 0.5 mM EDTA, 0.5% NP-40; 1 h at 4°C; anti-HA western blot; the paper calls it a pulldown
[1] = target: GFP-tagged human PRR14 Tantalus domain (455–517), wild type (human) (UniProt Q9BWN1)
[2] = target: GFP-tagged human PRR14 Tantalus domain (455–517) E500A, E501A (human) (UniProt Q9BWN1)
[3] = target: GFP-tagged human PRR14 Tantalus domain (455–517) N483S, K484R (human) (UniProt Q9BWN1)
[4] = target: GFP-tagged human PRR14 Tantalus domain (455–517) F495L (human) (UniProt Q9BWN1)

| binding [1] | binding [2] | binding [3] | binding [4] | Substance |
| --- | --- | --- | --- | --- |
| binds | no binding | binds | binds | HA-tagged human PP2A B56α regulatory subunit, wild type (from UniProt Q15172 1-486) |
| binds |  |  |  | HA-tagged human PP2A B56α G216Q (from UniProt Q15172 1-486) |
